± gives the standard deviation of the averaged measurements. The list shows a part of the results.
tested on: PfAP2-G AP2 domain (GST-tagged); assay: gcPBM binding intensity (ln(normalized median fluorescence intensity)); higher = stronger DNA binding
In short: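 Binding intensity is the highest Masliner-normalised natural-log median intensity over replicate spots in either probe orientation. To obtain it, GST-tagged P. falciparum DNA-binding domains made in E. coli were incubated for 1 h on an Agilent 4 × 180k array of primer-extended double-stranded 36-bp intergenic genomic probes plus negative controls. Detection used Alexa488 anti-GST antibody with scanning at 488 nm.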

| Sequence | gcPBM binding intensity (ln) |
| --- | --- |
| TATATGTATGTTTGTTTGTTTGTATTTTTTAAGGTA [XGTACX_negctrl_site619] | 10.03 ± 0.064 |
| TTTTCTTTTTCCAAAAGTACGTAATTTAAACATTTT [XGTACX_site2066] | 11.2 ± 0.59 |
| AAAATATGTAGACACATACACACATATATATATATA [CACACA_site1221] | 10.6 ± 0.86 |
| AAATTAGAAATACCTACACACTTATCAAAATAAATT [CACACA_site7132] | 9.98 ± 0.13 |
| ATAATTATGAAGCATACATGCATGTCCTGGCTTAAA [TGCATGCA_site491] | 10.2 ± 0.26 |
| AAAAAATAAATAAATACACACAAATCTATATTTATA [CACACA_site7243] | 9.79 ± 0.028 |
| TTATAATATGGATACACACACATATATAAATATATA [CACACA_site5314] | 10.2 ± 0.3 |
| ATCTAAATTTTTCCATGTACATATACTTTTATGCAT [XGTACX_site2683] | 11.2 ± 0.71 |
| ATAAAAAAAAATAAATGTACAAATTAACAAAATAAT [XGTACX_site5048] | 10.8 ± 0.42 |
| ATTATTCATTTATGTAGTACATTTTAATACATTTAA [XGTACX_site3599] | 11.5 ± 0.64 |
| AAGAAAAATTTAAACTGTACTTGTTTTCCAATGAAC [XGTACX_site4443] | 11.4 ± 1 |
| AAAAAAAAAAAAGTTACACACAAATAAAATATTTGG [CACACA_site694] | 9.87 ± 0.18 |
| AATCACCAAATATGTACACACCTTAACATGTTTATA [CACACA_site5180] | 11.4 ± 0.82 |
| ATCTAAACAAATAATACACACAATAAAATAGGAAGA [CACACA_site4072] | 9.94 ± 0.042 |
| TGTGAATAAATAAGCACACATAAACCCATATATAAA [CACACA_site4103] | 10.21 ± 0.021 |
| TATTTTTTAAAAATGGGTACACATAAATAAATAAAT [XGTACX_site7643] | 11.6 ± 0.95 |
| TAATATTTACATATTACACACACGTATTATTAAATA [CACACA_site6340] | 10.12 ± 0.071 |
| TTATACTATTTTTATACATGCATTTCTATATATTTT [TGCATGCA_site316] | 10.11 ± 0.014 |
| TTATAATCAATGAATACACACATATATTTCATTAAT [CACACA_site5909] | 9.93 |

| Sequence | gcPBM binding intensity (ln) |
| --- | --- |
| TAATAATAGAGACACACACACATAGACATATAAATA [CACACA_site6729] | 10.12 ± 0.092 |
| ATCTATGAAAAAGGTACATGCAATAAAGAAACATAT [TGCATGCA_site805] | 11.1 ± 0.76 |
| TTCAAAATAAAAAATTCACACACATATATATATATA [CACACA_site8653] | 9.84 ± 0.28 |
| TATATATATATTATATGTACACAAGGAAATATGCAT [XGTACX_site5637] | 11.5 ± 0.75 |
| TATGTATAATTATTTTGTACTTATTAAATTTTTTTT [XGTACX_site5413] | 11 ± 0.72 |
| AAATAAAAAAAAATAGCACACATAAATATATTATAT [CACACA_site8155] | 9.925 ± 0.049 |
| ATTTATTAAATTTATAGTACTCAAAGATTTTTATTT [XGTACX_site6661] | 11.2 ± 0.72 |
| AAATAAAACAATTAACGTACAAGCATATATATATAT [XGTACX_site8508] | 11.3 ± 0.99 |
| AAAAAAGCAATATGATGTACATTTACTTTGTGAAAG [XGTACX_site4450] | 10.9 ± 0.52 |
| TAAAAAAATAAAATTACACACATATATAAATATATA [CACACA_site2620] | 9.53 ± 0.15 |
| AAGGAAAACAATAGGTGTACCAAACGTCCTAGGAAC [XGTACX_site5732] | 11.2 ± 0.58 |
| TTTCTTCATTTTTTCACACATAAGAAAATATAATCA [CACACA_site4275] | 10.1 ± 0.32 |
| AATTTAAAAAAAATCACACACAGAAAAAAAAAAAAA [CACACA_site2322] | 9.83 ± 0.28 |
| ATATATGTTTTTATATGTACTTATAATGTGTGTATA [XGTACX_site5165] | 11.4 ± 0.93 |
| CTAGGTATGCTTTAAACATGCAAAAATACAAATTAC [TGCATGCA_site239] | 10.1 ± 0.28 |
| ATATATAAATATATTTGTACATATAATATGTATTAT [XGTACX_site8820] | 10.7 ± 0.4 |
| TTTTGTTATAATAAAGTGCATTTAGTCGGGTTACAA [GTGCAC_site9779] | 10.3 ± 0.4 |
| AAATATTATAAAAAGGTGCATTTTTATTATATGAGT | 10.1 ± 0.11 |
| TGAAGAGGAAACAAACAAAATGAATAATTAAAAAGG [CACACA_negctrl_site1601] | 9.905 ± 0.092 |

| Sequence | gcPBM binding intensity (ln) |
| --- | --- |
| TTCTGACCAATGCTATAAAATAATACAAAAGAAAAA [GTGCAC_negctrl_site3] | 10.4 ± 0.54 |
| TATATCCACATTTTTAGTACTTAAAAATAAATAAAC [XGTACX_site3826] | 11.2 ± 0.74 |
| GTATATATATATATATGCAAATGTATAAATCTACAT [CACACA_negctrl_site546] | 9.89 ± 0.057 |
| AAGAAAAAAATATATGTTTATTTACTTTAATAATTT [TGCATGCA_negctrl_site168] | 9.59 ± 0.24 |
| CTCAAAGGAATATTCACACATAAATTATAGACTACA [CACACA_site6050] | 9.8 ± 0.13 |
| TAATTATATTCACTTGCTATATAAATTATATATATT [CACACA_negctrl_site526] | 9.805 ± 0.092 |
| ATACACACTCAAAAAAGTACTTAACTACATGAATTG [XGTACX_site6366] | 11.4 ± 0.64 |
| TATATATAAATATGCTGTACGTTTTAATACGTTAAG [XGTACX_site2378] | 11.4 ± 0.95 |
| AAAAAAATAGTCTTCTTGCACTTTTTAATTTATTTT | 10 ± 0.014 |
| TTATAATAAAATGAATATATATAATTTAAAATATTT [CACACA_negctrl_site1651] | 9.56 ± 0.16 |
| GATAAATTAAAACACACACACATATATATATATATA [CACACA_site3962] | 10.2 ± 0.69 |
| ATATTTATGAAGTTCACACATATATATATATATATA [CACACA_site5954] | 10.3 ± 0.56 |
| ACAACAATATTTGAATGTACTCTATTTTCGTTGTTC [XGTACX_site593] | 11.2 ± 0.7 |
| AAAAAAAGTTATATTACACACTTTATTCGTTAACTT [CACACA_site3013] | 9.895 ± 0.021 |
| AAAATGGTTTATAAATGTACATATATTATATATAAC [XGTACX_site7959] | 11.1 ± 0.64 |
| AATGATAATATTTCCTTCTTTTTTACTTCTTTCTTT [CACACA_negctrl_site776] | 9.72 ± 0.23 |
| TATAAAAAATAATACACACACATGGCGACAAAATAA [CACACA_site2420] | 10.4 ± 0.15 |
| TTTACTTTCCCAAGTTGTACTGCTTCTAAGCTTTTT [XGTACX_site2708] | 11.1 ± 0.69 |
| CCTATCCAGACATATACACACATATCTATTTATATA [CACACA_site5001] | 10.02 ± 0.014 |

From the supplement of paper PMC11417369
